Results: US8969004B2, “Detection of immobilized nucleic acid” (Life Technologies Corporation, priority 2004, dated 2015)

Test system: thymidine kinase (TK) locus in L5178Y mouse lymphoma cells
Assay: L5178Y TK+/− Mouse Lymphoma Forward Mutation Screen
Excerpt: This assay evaluated the test compounds for their ability induce significant mutagenic activity at the thymidine kinase (TK) locus in L5178Y mouse lymphoma cells as assayed by colony growth in the presence and absence of S9, an exogenous metabolic activation system of mammalian microsomal enzymes derived from Acrolor-induced rat liver and is based on the assay reported by (Clive and Spector, 31 Mutation Research (1975) 17-29; Clive et al. 59 Mutation Research (1979) 61-108; Amacher et al Mutation Research 72 (1980) 447-474; Clive et al. Mutation Research 189 (1987) 143-156). The cell cultures were scored for both cytotoxicity and increases in the mutant frequency wherein a positive result was based on a frequency that was at least twice the average mutant frequency of the concurrent vehicle control (DMSO). The mouse lymphoma cells used for this assay were heterozygous at the TK locus and may undergo a single step forward mutation to the TK^−/− genotype in which little or no TK activity remains. These mutants are viable in normal cell culture medium but these mutants are resistant to the thymidine analog 5-trifluorothymidine (TFT) because they cannot incorporate the toxic analog of thymidine into DNA. Thus, cells that grow to form colonies in the presence of TFT are therefore assumed to have mutated, either spontaneously or by the test compounds. The results of this assay are not definitive but rather an indicator that a test compound has mutagenic properties, or not.
The mouse lymphoma cells were cultured in RPMI 1640 supplemented with horse serum (10% by volume), Pluronic F68, L-glutamine, sodium pyruvate, penicillin and streptomycin (Amacher et al Mutation Research 72 (1980) 447-474; Clive and Spector, Mutation Research 31 (1975) 17-29). Treatment medium was Fisher's medium with the same medium supplements as used for the culture medium except that the horse serum was reduced to 5% by volume. Cloning medium was RPMI 1640 with up to 20% horse serum, without Pluronic F68 and with the addition of 0.24% BBL agar to achieve a semisolid state. Selection medium was cloning medium containing 3 μg/ml of TFT (Clive et al. Mutation Research 189 (1987) 143-156).
The positive controls were Methyl methanesulfonate (MMS) and Methylcholanthrene (MCA) to be used without and with the S9 activation, respectively. MMS is a direct acting mutagen that is highly mutagenic to L5178Y TK^+/− cells and was used at a concentration of 13 μg/mL. MCA requires metabolic activation by microsomal enzymes to become mutagenic to L5178Y TK^+/− cells, S9, and was used at a concentration of 2 and/or 4 μg/mL. The test compounds, ethidium bromide, thiazole orange and Compound 1, were assayed at concentrations of 0.00625 to 4.93 μg/mL.
The cells were pelleted and resuspended in treatment medium containing controls or test compounds, with and without S9. The tubes were placed in an orbital shaker incubator at 35-38° C. and rotated at 70±10 orbitals per minute. After a four-hour exposure period the cells were washed twice, resuspended in 10 mL of culture medium and returned to the orbital shaker and the cells were allowed to grow for two days for mutant recovery. Cell densities less than approximately 3×10^5 cells/mL after day 2 were no considered for mutant selection. The mutants were recovered by plating a total of 3×10^6 cells in selection medium in soft agar. The dishes were incubated for 10 to 14 days at approximately 37° C. with about 5% CO2/95% humidified air.
The mutant frequency was calculated as the ratio of the total number of mutant colonies found in each mutant selection dishes to the total number of cells seeded, adjusted by the absolute selection cloning efficiency. The cytotoxicity was based on the relative suspension growth of cells over the 2-day expression period multiplied by the relative cloning efficiency at the time of selection resulting in a relative total growth (RTG) number.

## Cc1ccc2cc3c(ccc4ccccc43)c3c2c1CC3 [MCA, Methylcholanthrene]
With S9, 2 μg/mL
  Mutant Frequency (×10^−6 Units): 446.4 ×10^−6 Units
  RTG % (relative total growth): 35.0%
With S9, 4 μg/mL
  Mutant Frequency (×10^−6 Units): 478.4 ×10^−6 Units
  RTG % (relative total growth): 17.1%

## CN1/C(=C/c2cc[n+](C)c3ccccc23)Sc2ccccc21 [Thiazole orange, thiazole orange]
  Forward Mutation Test, L5178YTK+/− mouse lymphoma cells: result: negative
mouse, 4 h, 0.1 μg/mL
  Mutant Frequency (×10^−6 Units): 53.0 ×10^−6 Units
  RTG % (relative total growth): 60.9%
mouse, 4 h, 0.2 μg/mL
  Mutant Frequency (×10^−6 Units): 58.8 ×10^−6 Units
  RTG % (relative total growth): 23.4%
mouse, 4 h, 4.93 μg/mL
  Mutant Frequency (×10^−6 Units): 77.4 ×10^−6 Units
  RTG % (relative total growth): 90.4%
mouse, 4 h, 9.85 μg/mL
  Mutant Frequency (×10^−6 Units): 78.0 ×10^−6 Units
  RTG % (relative total growth): 22.6%

## CCC[n+]1ccc(/C=C2\Sc3ccccc3N2C)c2ccccc21 [Compound 1]
mouse, 4 h, 0.125 μg/mL
  Mutant Frequency (×10^−6 Units): 55.2 ×10^−6 Units
  RTG % (relative total growth): 80.3%
mouse, 4 h, 0.25 μg/mL
  Mutant Frequency (×10^−6 Units): 67.3 ×10^−6 Units
  RTG % (relative total growth): 26.5%
mouse, 4 h, 1.24 μg/mL
  Mutant Frequency (×10^−6 Units): 70.6 ×10^−6 Units
  RTG % (relative total growth): 65.1%
mouse, 4 h, 2.47 μg/mL
  Mutant Frequency (×10^−6 Units): 86.7 ×10^−6 Units
  RTG % (relative total growth): 47.1%
mouse, 4 h, 4.93 μg/mL
  Mutant Frequency (×10^−6 Units): 114.5 ×10^−6 Units
  RTG % (relative total growth): 7.6%

## CC[n+]1c(-c2ccccc2)c2cc(N)ccc2c2ccc(N)cc21 [Ethidium bromide, ethidium bromide]
With S9, 2.47 μg/mL
  Mutant Frequency (×10^−6 Units): 73.7 ×10^−6 Units
  RTG % (relative total growth): 37.1%
With S9, 4.93 μg/mL
  Mutant Frequency (×10^−6 Units): 93.6 ×10^−6 Units
  RTG % (relative total growth): 23.1%
Without S9, 1.24 μg/mL
  Mutant Frequency (×10^−6 Units): 59.3 ×10^−6 Units
  RTG % (relative total growth): 46.3%
Without S9, 2.47 μg/mL
  Mutant Frequency (×10^−6 Units): 67.6 ×10^−6 Units
  RTG % (relative total growth): 33.7%
Without S9, 4.93 μg/mL
  Mutant Frequency (×10^−6 Units): 94.2 ×10^−6 Units
  RTG % (relative total growth): 22.7%
Without S9, .620 μg/mL
  Mutant Frequency (×10^−6 Units): 64.3 ×10^−6 Units
  RTG % (relative total growth): 53.6%
With and without S9
  Forward Mutation Test, L5178YTK+/− mouse lymphoma cells: result: negative

Read-outs that look alike come from different tables or passages of the source.
